Results from the supplement of paper PMC3334620.
In all, about 33,000 sequences were measured (“E-score (-0.5 to 0.5)”: median about -0.04, highest 2% from about 0.36 on). Some of the results follow.

Biological target: T1, Hmlalpha2 (UniProt P0CY09)
T1 sequence: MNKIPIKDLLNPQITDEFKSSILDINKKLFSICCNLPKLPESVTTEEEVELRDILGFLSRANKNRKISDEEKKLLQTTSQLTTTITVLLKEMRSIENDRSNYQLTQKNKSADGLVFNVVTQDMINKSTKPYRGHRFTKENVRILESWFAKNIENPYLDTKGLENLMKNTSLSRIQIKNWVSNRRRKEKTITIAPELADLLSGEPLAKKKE
Experiment: PBM E-score (8-mer binding enrichment) (E-score (-0.5 to 0.5)); higher = stronger / more preferred TF binding; most listed sequences are background and not binding sites
Conditions: protein concentration: 200 nM; construct: GST-full length
Outline: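 The E-score, a modified Wilcoxon-Mann-Whitney statistic, was computed by the Universal PBM Analysis Suite for every ungapped eight-base word pooled with its reverse complement. Scans behind it were normalised with masliner after bound GST-tagged yeast transcription factors were detected with fluorescent anti-GST. The proteins, at about 100-200 nM, had been applied to universal all-10-mer Agilent arrays made double-stranded by primer extension.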

Sequence	PBM E-score
GAAATCTC	-0.0991
GGCCGTCA	-0.274
AGAAGGGG	-0.217
CATCCTTA	0.0577
CCGCCTCA	-0.184
CCTGCGCG	-0.0382
ACATTCAC	0.209
CGAAGATA	-0.04
ACGTTAAC	0.281
ATTTGATG	0.0937
CCACCATA	-0.258
ACGCTCTG	-0.012
GTCTCCCA	-0.199
AAACACTC	0.109
AGGATCTC	-0.346
CAACCGAC	0.0641
CTGCACAA	0.00284
AGCACACA	-0.0355
CTTCGTGA	-0.037
ATGGGTGC	-0.0757
AGGAGTCC	-0.211
ATCATCCG	-0.1
ACCCGGCT	-0.0901
GACGGCCC	-0.386

Sequence	PBM E-score
TCGGCACA	-0.187
CCGAGTTA	0.0889
TCTGCACA	0.0476
GACTGTTA	0.0403
CTGTTCCA	-0.122
AAGCAGGC	-0.11
CTGTGGGA	-0.335
CTAATTTC	-0.0446
TAGAGAAA	-0.00565
GCGATAGC	-0.0391
CAAATACA	0.364
GCTTCATA	-0.0615
CACACGGG	0.218
AAGCAAAA	0.126
CCGCCCCC	-0.432
AATACAAG	0.386
CAGCTCCA	-0.168
CTCGAAAC	-0.0493
CAGCGGGC	-0.23
CAAACAGG	0.0864
AAAAACTT	0.169
AATCATGA	0.0793
CCTGCTCC	-0.19
CCAAGTCA	-0.267

Sequence	PBM E-score
AATAAAAG	0.00774
AGTTTGGC	-0.089
TCAAGACA	0.0062
GGGACTCA	-0.288
TCGCACGA	-0.0802
CAGATTCG	-0.0374
ACCAGATG	-0.0977
CCAGACCC	-0.326
CCGAGGGA	-0.271
AGGCGCCA	-0.24
GGTGACAC	-0.103
CGGGCCCC	-0.166
CGCTCTGC	-0.0902
AACTCGTA	0.157
ATTTCCTC	0.00737
CATAGCGG	-0.101
AACGCACA	0.218
GCCGCGGC	-0.242
ATCATGGA	-0.275
AAGTTTGC	0.0586
CGAGAAAG	-0.0529
CGAGCAGA	-0.211
GCGACCGA	-0.0555
AACTTCCC	-0.114

Sequence	PBM E-score
GGGTTAAA	0.0819
GGTCCGAC	-0.159
AATGGAGC	-0.156
CAGTTTCG	-0.205
CTTCTGTA	0.159
CCTCCCCG	-0.141
CGATCAAA	-0.181
AGGAATTA	0.121
TAACCGCA	0.0481
CTACGAGA	-0.0224
ATGCTTGG	-0.195
CATGCGCG	0.0964
ATCGATCC	-0.171
AAGAAGTC	-0.0545
ATTTTTCA	0.0432
AGAAGAGA	-0.2
CCCCCGGA	-0.355
ACCCTTAT	0.0605
AAAATTCG	0.0931
AATCGCGC	-0.087
CGCGGTGA	-0.0723
GAAGCAAC	0.025
